Source: publication PMC4336329 (PLoS ONE, 2015)
Among all 310,000 compounds or so, about 2,200 (0.71%) showed an effect of 50% or more. Effects have a minus sign here. This is one part of the list.

target: human ether-à-go-go-related gene (hERG) potassium channel (human, UniProt Q12809); assay: primary screen, population patch clamp on CHO cells stably expressing hERG
Sequence (Q12809 whole entry, looked up): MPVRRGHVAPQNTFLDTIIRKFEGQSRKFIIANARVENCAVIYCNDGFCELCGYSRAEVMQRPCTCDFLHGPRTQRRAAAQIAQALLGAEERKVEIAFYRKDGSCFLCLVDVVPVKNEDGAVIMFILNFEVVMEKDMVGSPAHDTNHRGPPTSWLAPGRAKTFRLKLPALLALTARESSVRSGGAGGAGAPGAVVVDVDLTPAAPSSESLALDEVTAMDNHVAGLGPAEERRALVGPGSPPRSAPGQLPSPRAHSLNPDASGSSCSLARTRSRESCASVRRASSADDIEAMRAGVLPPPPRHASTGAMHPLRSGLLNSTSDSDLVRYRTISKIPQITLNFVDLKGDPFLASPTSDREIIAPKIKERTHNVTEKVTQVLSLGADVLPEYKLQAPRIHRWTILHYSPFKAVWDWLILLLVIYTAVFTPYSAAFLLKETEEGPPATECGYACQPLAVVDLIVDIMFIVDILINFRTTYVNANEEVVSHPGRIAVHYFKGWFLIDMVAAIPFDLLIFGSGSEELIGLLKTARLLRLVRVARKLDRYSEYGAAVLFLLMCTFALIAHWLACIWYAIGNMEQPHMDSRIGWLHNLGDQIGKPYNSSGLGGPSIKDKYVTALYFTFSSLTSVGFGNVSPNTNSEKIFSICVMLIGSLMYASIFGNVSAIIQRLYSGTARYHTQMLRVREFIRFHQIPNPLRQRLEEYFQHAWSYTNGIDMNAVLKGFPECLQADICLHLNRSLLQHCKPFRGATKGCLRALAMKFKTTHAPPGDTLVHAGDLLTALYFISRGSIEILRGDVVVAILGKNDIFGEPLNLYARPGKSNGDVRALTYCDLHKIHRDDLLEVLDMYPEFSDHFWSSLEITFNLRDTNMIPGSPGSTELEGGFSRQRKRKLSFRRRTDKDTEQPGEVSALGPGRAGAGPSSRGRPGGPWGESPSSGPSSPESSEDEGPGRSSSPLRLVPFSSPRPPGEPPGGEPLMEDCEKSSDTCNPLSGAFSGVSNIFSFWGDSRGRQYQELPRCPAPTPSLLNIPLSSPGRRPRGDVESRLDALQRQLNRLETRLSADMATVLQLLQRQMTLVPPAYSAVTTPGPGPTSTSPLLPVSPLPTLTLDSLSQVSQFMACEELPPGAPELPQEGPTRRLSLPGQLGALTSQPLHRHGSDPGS

| Structure (SMILES) | hERG current change (%, negative = inhibition) at 1uM [%] |
| --- | --- |
| Cc1ccc(N2CC(C(=O)N3CCC(C(=O)Nc4cccc(Br)c4)CC3)CC2=O)cc1 (stereo not drawn) | -5.89 |
| CCN(c1ccccc1)S(=O)(=O)c1ccc(NC(=O)c2ccco2)cc1 | 6.73 |
| Cc1ccc(NC(=O)C(=O)Nc2ccccn2)cc1 | 10.2 |
| CC[N+](CC)(CC#Cc1ccccc1)CC(=O)c1ccc(Cl)cc1 | -3.43 |
| CCN1CCCC1CNC(=O)c1ccc2c(c1)N(Cc1cccc(Cl)c1)C(=O)c1ccccc1S2(=O)=O (stereo not drawn) | -16.1 |
| CCOCc1nnc(NC(=O)C2CC(=O)N(C3CCCC3)C2)s1 (stereo not drawn) | 14.2 |
| CCCCCc1ccc(-c2cn(Cc3cccc(OC)c3)nn2)cc1 | 18 |
| Cc1cc(C(=O)N/N=C/c2ccc([N+](=O)[O-])s2)n[nH]1 | 14.8 |
| COc1ccc(-c2nn3c(=O)c(C)nnc3s2)cc1 | 14.5 |
| COc1cc2c(cc1NC(=O)c1cccc(S(=O)(=O)N(C)C)c1)oc1ccccc12 | 10.6 |
| CCNC(=S)NS(=O)(=O)c1ccc(CC)cc1 | 9.16 |
| CCCn1c(C)cc(=O)c2cc(NC(=O)c3cnccn3)ccc21 | 3.94 |
| NS(=O)(=O)c1ccc(NC(=O)COC(=O)c2c3c(nc4ccccc24)/C(=C\c2ccc4c(c2)OCO4)CCC3)cc1 | 7.23 |
| CCC1CCc2sc(C(=O)NCC(c3ccc(OC)cc3)N3CCCC3)cc2C1 (stereo not drawn) | -11.2 |
| Nc1ccc(-n2nncc2-c2ccco2)cc1 | -13.2 |
| Cc1cccc(C)c1NC(=O)NC1(C(=O)NCCCN2CCOCC2)CCCCC1 | 12.6 |
| COc1ccc(NC(=O)Nc2ccccc2SC)cc1 | 11.1 |
| Cc1ccc(C)c(OCCCC(=O)NC2CCCCC2)c1 | 7.33 |
| CC(=O)Nc1ccc2c3c(cccc13)CC2 | 11.3 |
| CC(C)C[C@H](NC(=O)[C@@H]1Cc2ccccc2CN1)C(=O)Nc1ccc(C(C)C)cc1 | 12.8 |
| CSc1nccn1CC(=O)Nc1ccc(F)cc1 | 0.97 |
| COc1ccc(C(C)=O)cc1COC(=O)c1ccc2c(c1)OCCO2 | 18.1 |
| COc1ccc(CCNC(=O)c2cc(-c3ccccc3)c(N3CCOCC3)s2)c(OC)c1OC | 9.16 |

| Structure (SMILES) | hERG current change (%, negative = inhibition) at 1uM [%] |
| --- | --- |
| O=C(Nc1ccc(-c2csc(Nc3ccccc3)n2)cc1)c1cc([N+](=O)[O-])cc(C(F)(F)F)c1 | 4.72 |
| COc1ccc(C(=O)CCN2CCC(C)CC2)cc1.Cl | 0.807 |
| COc1cccc(C2C(C#N)=C(N)OC3=C2C(=O)CC(c2ccco2)C3)c1OCc1ccc(F)cc1 (stereo not drawn) | 7.29 |
| NC(=O)CNC(=O)c1cccc(Cl)c1 | 12.7 |
| Cc1nc2cc(-c3ccc(Cl)cc3)nn2c(C)c1CCC(=O)NCc1ccco1 | 8.63 |
| O=c1oc2ccccc2c2oc3cc(O)c(O)cc3c12 | -3.94 |
| Cc1csc2ncc(C(=O)N3c4ccccc4CC3C)c(=O)n12 (stereo not drawn) | 12.6 |
| Cc1ccc2oc(=O)c(/C=C(\O)c3cccs3)nc2c1 | 13 |
| Cc1cc(C)c2c(-n3cccc3)nn(C)c2n1 | 12.6 |
| CC1CN(C(=O)COC(=O)c2c(Cl)cccc2Cl)CC(C)O1 (stereo not drawn) | 10.4 |
| Cc1ccc(S(=O)(=O)Cc2ccc(C(=O)O)o2)cc1 | 1.29 |
| CC(C)(C)N1CC(c2nc3ccccc3n2Cc2ccc(F)cc2)CC1=O (stereo not drawn) | -6.39 |
| COc1ccccc1C(O)(c1ccccc1)C(CN1CCOCC1)c1ccccc1.Cl (stereo not drawn) | 14.8 |
| COc1ccc(OC)c2sc(N3CCN(c4ccccc4)CC3)nc12 | 0.951 |
| Cc1ccc(C(=O)NC(=S)NCc2cccnc2)cc1 | 2.07 |
| Nc1ncnc(Nc2c(F)cccc2F)n1 | 7.67 |
| Cc1ccc(C(=O)CSc2nnc(CNc3ccc(F)cc3)o2)cc1 | -2.46 |
| O=S(=O)(NCc1cccs1)NCc1ccccc1F | 5.55 |
| CCC(=O)Nc1c(-c2ccccc2)c(=O)c2ccccc2n1C | 13.3 |
| O=C(Cn1cc(C(F)(F)F)ccc1=O)N/N=C/c1ccc(Cl)cc1 | 7.47 |
| Cc1onc(-c2ccccc2)c1C(=O)Nc1nncs1 | 15.9 |
| CCc1nc2ccccc2n1CC(=O)N(C(C)CC)C1CCS(=O)(=O)C1 (stereo not drawn) | 10.5 |
